This is one part of the list.
Assays:
HSkMC = human skeletal muscle cells; assay: cytotoxicity call (relative viability < 0.9); settings: 10 µM
HepG2 = assay: cytotoxicity call (relative viability < 0.9); settings: 10 µM
S. aureus RN4220 = assay: growth inhibition call (relative growth <= 0.2); settings: 50 µM

CCS(=O)(=O)Nc1ccc2c(c1)C(=O)N(C)[C@H]1CC[C@@H](CC(=O)NCCOC)O[C@H]1CO2
inactive: cytotoxicity call (HSkMC) | cytotoxicity call (HepG2) | growth inhibition call (S. aureus RN4220)

C[C@@H]1CCCCO[C@@H](CN(C)S(=O)(=O)c2ccccc2)[C@@H](C)CN([C@H](C)CO)C(=O)c2cc(NS(=O)(=O)c3cn(C)cn3)ccc2O1
inactive: cytotoxicity call (HSkMC) | cytotoxicity call (HepG2) | growth inhibition call (S. aureus RN4220)

COc1cc(/C=C/C(=O)CC2=C[C@H](c3ccc(O)c(OC)c3)SC(NCc3ccco3)=N2)ccc1O
inactive: cytotoxicity call (HSkMC) | cytotoxicity call (HepG2) | growth inhibition call (S. aureus RN4220)

C[C@@H]1CN([C@H](C)CO)C(=O)Cc2cc(NC(=O)Cn3cnnn3)ccc2O[C@@H]1CN(C)Cc1ccc(C(F)(F)F)cc1
inactive: cytotoxicity call (HSkMC) | cytotoxicity call (HepG2) | growth inhibition call (S. aureus RN4220)

Cc1noc(C)c1NC(=O)Nc1ccc2c(c1)C(=O)N([C@@H](C)CO)C[C@@H](C)[C@H](CN(C)C(=O)Nc1ccccc1)OCCCC[C@@H](C)O2
inactive: cytotoxicity call (HSkMC) | cytotoxicity call (HepG2) | growth inhibition call (S. aureus RN4220)

C[C@H](CO)N1C[C@H](C)[C@@H](CN(C)S(=O)(=O)c2cn(C)cn2)OCc2ccccc2-c2c(n(C)c3ccccc23)C1=O
inactive: cytotoxicity call (HSkMC) | cytotoxicity call (HepG2) | growth inhibition call (S. aureus RN4220)

CN(C)CC#Cc1ccc([C@@H]2[C@H](CO)N3CCCCN(C(=O)CN(C)C)C[C@@H]23)cc1
inactive: cytotoxicity call (HSkMC) | cytotoxicity call (HepG2) | growth inhibition call (S. aureus RN4220)

C[C@@H]1CCCCO[C@H](CN(C)Cc2ccc(C(=O)O)cc2)[C@H](C)CN([C@H](C)CO)C(=O)c2cc(NC(=O)CCC(F)(F)F)ccc2O1
inactive: cytotoxicity call (HSkMC) | cytotoxicity call (HepG2) | growth inhibition call (S. aureus RN4220)

O=C1O[C@@H](c2ccccc2)[C@@H](c2ccccc2)N2[C@@H](c3ccc(O)cc3)[C@]3(C(=O)Nc4ccc(C#CC5(O)CCCCCC5)cc43)[C@@H](C(=O)N3CCN(c4ncccn4)CC3)[C@H]12
inactive: cytotoxicity call (HSkMC) | cytotoxicity call (HepG2) | growth inhibition call (S. aureus RN4220)

NC1CCN(Cc2ccccc2)CC1
inactive: cytotoxicity call (HSkMC) | cytotoxicity call (HepG2) | growth inhibition call (S. aureus RN4220)

C[C@H](CO)N1C[C@H](C)[C@H](CN(C)Cc2ccc(C(=O)Nc3ccccc3N)cc2)Oc2ccc(NC(=O)C3CCCCC3)cc2C1=O
inactive: cytotoxicity call (HSkMC) | cytotoxicity call (HepG2) | growth inhibition call (S. aureus RN4220)

COc1ccc(S(=O)(=O)Nc2ccc3c(c2)C(=O)N([C@@H](C)CO)C[C@H](C)[C@H](CN(C)S(=O)(=O)c2ccc(C)cc2)O3)cc1
inactive: cytotoxicity call (HSkMC) | cytotoxicity call (HepG2) | growth inhibition call (S. aureus RN4220)

COc1ccc2c3c([nH]c2c1)[C@H](CO)N(Cc1ccc(cc1)Cl)C[C@]13CN(CCc2ccccc2)C1
active: cytotoxicity call (HSkMC) | cytotoxicity call (HepG2) | growth inhibition call (S. aureus RN4220)

C[C@H](CO)N1C[C@H](C)[C@H](CN(C)S(=O)(=O)c2cccs2)Oc2ccc(NC(=O)C3CC3)cc2CC1=O
inactive: cytotoxicity call (HSkMC) | cytotoxicity call (HepG2) | growth inhibition call (S. aureus RN4220)

C[C@H](CO)N1C[C@H](C)[C@H](CN(C)Cc2ccc(C(=O)O)cc2)OCCCC[C@H](C)Oc2ccc(NC(=O)Cc3ccccc3)cc2C1=O
inactive: cytotoxicity call (HSkMC) | cytotoxicity call (HepG2) | growth inhibition call (S. aureus RN4220)

CC(C)NC(=O)Nc1cccc2c1O[C@@H](CN(C)S(=O)(=O)c1ccc(F)cc1)[C@@H](C)CN([C@@H](C)CO)C2=O
inactive: cytotoxicity call (HSkMC) | cytotoxicity call (HepG2) | growth inhibition call (S. aureus RN4220)

Cc1noc(C)c1NC(=O)Nc1ccc2c(c1)C(=O)N([C@@H](C)CO)C[C@@H](C)[C@@H](CN(C)C(=O)Nc1c(C)noc1C)OCCCC[C@@H](C)O2
inactive: cytotoxicity call (HSkMC) | cytotoxicity call (HepG2) | growth inhibition call (S. aureus RN4220)

CC1=C(/C=C/C(C)=C/C=C/C(C)=C/C=C/C=C(C)/C=C/C=C(C)/C=C/C2=C(C)C(=O)[C@@H](O)CC2(C)C)C(C)(C)C[C@H](O)C1=O
inactive: cytotoxicity call (HSkMC) | cytotoxicity call (HepG2) | growth inhibition call (S. aureus RN4220)

COc1ccc(S(=O)(=O)N(C)C[C@@H]2OCc3cn(nn3)CCCC(=O)N([C@@H](C)CO)C[C@@H]2C)cc1
inactive: cytotoxicity call (HSkMC) | cytotoxicity call (HepG2) | growth inhibition call (S. aureus RN4220)

C[C@H]1CN([C@@H](C)CO)C(=O)c2cc(NS(C)(=O)=O)ccc2O[C@H]1CN(C)C(=O)Nc1ccccc1
inactive: cytotoxicity call (HSkMC) | cytotoxicity call (HepG2) | growth inhibition call (S. aureus RN4220)

C[C@H](NC(=O)N(C)C[C@H]1OCc2ccccc2-c2c(n(C)c3ccccc23)C(=O)N([C@H](C)CO)C[C@@H]1C)c1ccccc1
inactive: cytotoxicity call (HSkMC) | cytotoxicity call (HepG2) | growth inhibition call (S. aureus RN4220)

CC(C)NC(=O)N(C)C[C@@H]1Oc2ccc(NC(=O)Cn3cnnn3)cc2CC(=O)N([C@H](C)CO)C[C@@H]1C
inactive: cytotoxicity call (HSkMC) | cytotoxicity call (HepG2) | growth inhibition call (S. aureus RN4220)

Cc1ccc(S(=O)(=O)N(C)C[C@@H]2Oc3ccc(NS(=O)(=O)c4cccs4)cc3CC(=O)N([C@@H](C)CO)C[C@@H]2C)cc1
inactive: cytotoxicity call (HSkMC) | cytotoxicity call (HepG2) | growth inhibition call (S. aureus RN4220)

CCS(=O)(=O)N[C@@H]1C=C[C@H](CC(=O)NCc2ccc(Cl)cc2)O[C@H]1CO
inactive: cytotoxicity call (HSkMC) | cytotoxicity call (HepG2) | growth inhibition call (S. aureus RN4220)

C[C@@H]1CN([C@@H](C)CO)C(=O)c2cccc(NC(=O)Nc3ccc4c(c3)OCO4)c2O[C@H]1CN(C)Cc1ccc(C(=O)Nc2ccccc2N)cc1
inactive: cytotoxicity call (HSkMC) | cytotoxicity call (HepG2) | growth inhibition call (S. aureus RN4220)

Cc1ccc(S(=O)(=O)O)cc1.NC1CCN(c2nc3c(cc2F)c(=O)c(C(=O)O)cn3-c2ccc(F)cc2F)C1.O (stereo not drawn)
inactive: cytotoxicity call (HSkMC) | cytotoxicity call (HepG2) | growth inhibition call (S. aureus RN4220)

From the antibiotic and cytotoxicity screens of Wong et al. (2023)
